Source: the supplement of paper PMC8728848
This is one part of the list.

How the values were obtained:
Test in all cases: glycan array binding signal (z-score within array); higher = stronger binding
Settings in all cases: glycan notation: IUPAC condensed, linker removed
[1] = target: Neu5Ac(a2-3)Gal(b1-4)Glc
How it was run: (§1)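 Glycan array binding is given as a within-array Z-score, which can be read as non-binding when negative. The arrays, 3228 of them, came from the Consortium for Functional Glycomics database and were retained only where the protein sequence was available. Z-scores were averaged across arrays of the same protein sequence at different concentrations or buffers and across linkers.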

[2] = target: Neu5Ac(a2-3)Gal(b1-4)GlcNAc
How it was run: as §1

[3] = target: Neu5Ac(a2-3)Gal(b1-4)GlcNAc(b1-2)Man
How it was run: as §1

[4] = target: Neu5Ac(a2-3)Gal(b1-4)GlcNAc(b1-2)Man(a1-3)[GlcNAc(b1-4)][Neu5Ac(a2-3)Gal(b1-4)GlcNAc(b1-2)Man(a1-6)]Man(b1-4)GlcNAc(b1-4)GlcNAc
How it was run: as §1

[5] = target: Neu5Ac(a2-3)Gal(b1-4)GlcNAc(b1-2)Man(a1-3)[Neu5Ac(a2-3)Gal(b1-4)GlcNAc(b1-2)Man(a1-6)]Man(b1-4)GlcNAc(b1-4)GlcNAc
How it was run: as §1

[6] = target: Neu5Ac(a2-3)Gal(b1-4)GlcNAc(b1-2)Man(a1-3)[Neu5Ac(a2-3)Gal(b1-4)GlcNAc(b1-2)Man(a1-6)]Man(b1-4)GlcNAc(b1-4)[Fuc(a1-6)]GlcNAc
How it was run: as §1

[7] = target: Neu5Ac(a2-3)Gal(b1-4)GlcNAc(b1-2)Man(a1-3)[Neu5Ac(a2-6)Gal(b1-4)GlcNAc(b1-2)Man(a1-6)]Man(b1-4)GlcNAc(b1-4)GlcNAc
How it was run: as §1

[8] = target: Neu5Ac(a2-3)Gal(b1-4)GlcNAc(b1-2)[Neu5Ac(a2-3)Gal(b1-4)GlcNAc(b1-4)]Man(a1-3)[GlcNAc(b1-4)][Neu5Ac(a2-3)Gal(b1-4)GlcNAc(b1-2)[Neu5Ac(a2-3)Gal(b1-4)GlcNAc(b1-6)]Man(a1-6)]Man(b1-4)GlcNAc(b1-4)GlcNAc
How it was run: as §1

[9] = target: Neu5Ac(a2-3)Gal(b1-4)GlcNAc(b1-2)[Neu5Ac(a2-3)Gal(b1-4)GlcNAc(b1-4)]Man(a1-3)[GlcNAc(b1-4)][Neu5Ac(a2-3)Gal(b1-4)GlcNAc(b1-4)Man(a1-6)]Man(b1-4)GlcNAc(b1-4)GlcNAc
How it was run: as §1

[10] = target: Neu5Ac(a2-3)Gal(b1-4)GlcNAc(b1-2)[Neu5Ac(a2-3)Gal(b1-4)GlcNAc(b1-6)]Man(a1-6)[Neu5Ac(a2-3)Gal(b1-4)GlcNAc(b1-2)Man(a1-3)]Man(b1-4)GlcNAc(b1-4)GlcNAc
How it was run: as §1

[11] = target: Neu5Ac(a2-3)Gal(b1-4)GlcNAc(b1-2)[Neu5Ac(a2-3)Gal(b1-4)GlcNAc(b1-6)]Man(a1-6)[Neu5Ac(a2-3)Gal(b1-4)GlcNAc(b1-2)Man(a1-3)][GlcNAc(b1-4)]Man(b1-4)GlcNAc(b1-4)GlcNAc
How it was run: as §1

[12] = target: Neu5Ac(a2-3)Gal(b1-4)GlcNAc(b1-3)Gal
How it was run: as §1

[13] = target: Neu5Ac(a2-3)Gal(b1-4)GlcNAc(b1-3)Gal(b1-3)GlcNAc
How it was run: as §1

[14] = target: Neu5Ac(a2-3)Gal(b1-4)GlcNAc(b1-3)Gal(b1-4)GlcNAc
How it was run: as §1

[15] = target: Neu5Ac(a2-3)Gal(b1-4)GlcNAc(b1-3)Gal(b1-4)GlcNAc(b1-2)Man(a1-3)[Neu5Ac(a2-3)Gal(b1-4)GlcNAc(b1-3)Gal(b1-4)GlcNAc(b1-2)Man(a1-6)]Man(b1-4)GlcNAc(b1-4)GlcNAc
How it was run: as §1

[16] = target: Neu5Ac(a2-3)Gal(b1-4)GlcNAc(b1-3)Gal(b1-4)GlcNAc(b1-3)Gal(b1-4)GlcNAc
How it was run: as §1

[17] = target: Neu5Ac(a2-3)Gal(b1-4)GlcNAc(b1-3)Gal(b1-4)GlcNAc(b1-3)Gal(b1-4)GlcNAc(b1-2)Man(a1-3)[Neu5Ac(a2-3)Gal(b1-4)GlcNAc(b1-3)Gal(b1-4)GlcNAc(b1-3)Gal(b1-4)GlcNAc(b1-2)Man(a1-6)]GalNAc
How it was run: as §1

[18] = target: Neu5Ac(a2-3)Gal(b1-4)GlcNAc(b1-3)Gal(b1-4)GlcNAc(b1-3)GalNAc
How it was run: as §1

[19] = target: Neu5Ac(a2-3)Gal(b1-4)GlcNAc(b1-3)Gal(b1-4)GlcNAc(b1-3)[Neu5Ac(a2-3)Gal(b1-4)GlcNAc(b1-3)Gal(b1-4)GlcNAc(b1-6)]GalNAc
How it was run: as §1

[20] = target: Neu5Ac(a2-3)Gal(b1-4)GlcNAc(b1-3)Gal(b1-4)GlcNAc(b1-6)[Gal(b1-3)]GalNAc
How it was run: as §1

[21] = target: Neu5Ac(a2-3)Gal(b1-4)GlcNAc(b1-3)Gal(b1-4)[Fuc(a1-3)]GlcNAc
How it was run: as §1

[22] = target: Neu5Ac(a2-3)Gal(b1-4)GlcNAc(b1-3)GalNAc
How it was run: as §1

[23] = target: Neu5Ac(a2-3)Gal(b1-4)GlcNAc(b1-3)[Neu5Ac(a2-3)Gal(b1-4)GlcNAc(b1-6)]GalNAc
How it was run: as §1

[24] = target: Neu5Ac(a2-3)Gal(b1-4)GlcNAc(b1-6)GalNAc
How it was run: as §1

[25] = target: Neu5Ac(a2-3)Gal(b1-4)GlcNAc(b1-6)[Gal(b1-3)]GalNAc
How it was run: as §1

[26] = target: Neu5Ac(a2-3)Gal(b1-4)GlcNAc(b1-6)[Neu5Ac(a2-3)Gal(b1-3)]GalNAc
How it was run: as §1

[27] = target: Neu5Ac(a2-3)Gal(b1-4)GlcNAc6S
How it was run: as §1

[28] = target: Neu5Ac(a2-3)Gal(b1-4)[Fuc(a1-3)]GlcNAc
How it was run: as §1

[29] = target: Neu5Ac(a2-3)Gal(b1-4)[Fuc(a1-3)]GlcNAc(b1-2)Man
How it was run: as §1

[30] = target: Neu5Ac(a2-3)Gal(b1-4)[Fuc(a1-3)]GlcNAc(b1-3)Gal
How it was run: as §1

[31] = target: Neu5Ac(a2-3)Gal(b1-4)[Fuc(a1-3)]GlcNAc(b1-3)Gal(b1-4)GlcNAc
How it was run: as §1

[32] = target: Neu5Ac(a2-3)Gal(b1-4)[Fuc(a1-3)]GlcNAc(b1-3)Gal(b1-4)[Fuc(a1-3)]GlcNAc(b1-3)Gal(b1-4)[Fuc(a1-3)]GlcNAc
How it was run: as §1

[33] = target: Neu5Ac(a2-3)Gal(b1-4)[Fuc(a1-3)]GlcNAc(b1-3)GalNAc
How it was run: as §1

[34] = target: Neu5Ac(a2-3)Gal(b1-4)[Fuc(a1-3)]GlcNAc(b1-6)[Gal(b1-3)]GalNAc
How it was run: as §1

[35] = target: Neu5Ac(a2-3)Gal(b1-4)[Fuc(a1-3)]GlcNAc(b1-6)[Neu5Ac(a2-3)Gal(b1-3)]GalNAc
How it was run: as §1

[36] = target: Neu5Ac(a2-3)Gal(b1-4)[Fuc(a1-3)]GlcNAc6S
How it was run: as §1

[37] = target: Neu5Ac(a2-3)Gal6S(b1-4)GlcNAc
How it was run: as §1

[38] = target: Neu5Ac(a2-3)Gal6S(b1-4)[Fuc(a1-3)]GlcNAc
How it was run: as §1

B1: LSL-150 (Laetiporus sulphureus), Q7Z8V1 (protein)
chain: MTDIYIPPEGLYFRLLGFASRQVIFARNSPSPDVGLSPVNDQATDQYFSLIYGTGEHAGLYAIKSKATGKVLFSRRPAEPYVGQIDGDGRYPDNWFKIEPGKTYLSKYFRLVQPSTGTALVSRTHLQPYFWNHPQTEVFDDQYFTFLFEDHHHHHH
[1]
  glycan array binding signal (z-score): -0.191
[2]
  glycan array binding signal (z-score): -0.208
[3]
  glycan array binding signal (z-score): -0.198
[4]
  glycan array binding signal (z-score): -0.208
[5]
  glycan array binding signal (z-score): -0.196
[6]
  glycan array binding signal (z-score): -0.196
[7]
  glycan array binding signal (z-score): -0.211
[8]
  glycan array binding signal (z-score): -0.202
[9]
  glycan array binding signal (z-score): -0.209
[10]
  glycan array binding signal (z-score): -0.203
[11]
  glycan array binding signal (z-score): -0.208
[12]
  glycan array binding signal (z-score): -0.211
[13]
  glycan array binding signal (z-score): -0.214
[14]
  glycan array binding signal (z-score): -0.169
[15]
  glycan array binding signal (z-score): -0.077
[16]
  glycan array binding signal (z-score): 1.07
[17]
  glycan array binding signal (z-score): -0.131
[18]
  glycan array binding signal (z-score): -0.176
[19]
  glycan array binding signal (z-score): -0.103
[20]
  glycan array binding signal (z-score): -0.203
[21]
  glycan array binding signal (z-score): -0.209
[22]
  glycan array binding signal (z-score): -0.209
[23]
  glycan array binding signal (z-score): -0.208
[24]
  glycan array binding signal (z-score): -0.21
[25]
  glycan array binding signal (z-score): -0.21
[26]
  glycan array binding signal (z-score): -0.206
[27]
  glycan array binding signal (z-score): -0.206
[28]
  glycan array binding signal (z-score): -0.208
[29]
  glycan array binding signal (z-score): -0.211
[30]
  glycan array binding signal (z-score): -0.211
[31]
  glycan array binding signal (z-score): -0.2
[32]
  glycan array binding signal (z-score): -0.203
[33]
  glycan array binding signal (z-score): -0.209
[34]
  glycan array binding signal (z-score): -0.203
[35]
  glycan array binding signal (z-score): -0.203
[36]
  glycan array binding signal (z-score): -0.201
[37]
  glycan array binding signal (z-score): -0.206
[38]
  glycan array binding signal (z-score): -0.213
